Assay results taken from PubChem BioAssay AID686978 (National Center for Advancing Translational Sciences (NCATS), 2013).
The whole screen tested about 420,000 compounds, of which about 64,000 (15%) were called active. The shares of active, inactive and inconclusive entries below differ from those in the screen. Calls follow the shape of the dose curve; as a rule, active = well fitted inhibition curve with a large enough effect; inconclusive = small, poorly fitted or top-dose-only effect; inactive = flat fitted curve, though single readings scatter. Potencies of inconclusive entries are left out as doubtful fits.

assay: qHTS for Inhibitors of human tyrosyl-DNA phosphodiesterase 1 (TDP1): qHTS in cells in absence of CPT; conditions: DT40 Tdp1-/- hTDP1 cells, no CPT, ATP luminescence, 48 h; activity change, negative = growth inhibition: at 46.2 µM (top of the series) unless noted; also: nearly all actives have a fitted effect of over 55% in size
Outline: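 Growth of hTDP1-complemented DT40 Tdp1-knockout cells is measured by ATP luminescence after at least 48 hr compound exposure at 37 °C, with DMSO substituting for the 20 nM CPT used in the parallel screen.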
% is scaled to controls: 0 for no effect and ±100 for the full control effect; potency is read from the fitted curve at half-maximal effect; tags tell the direction and shape of the fitted curve.

SMILES | activity change, negative = growth inhibition | Potency
CC1CCN(C(=O)c2cnn(-c3ccc(Cl)cc3)c2C2CCN(C(=O)OC(C)(C)C)CC2)CC1 | inactive: -9.05% | 
CCOC(=O)C1=C(N)Oc2cc(O)ccc2C1c1ccccc1 (stereo not drawn) |  | inconclusive [inhibitor, single point]
Cc1oc(-c2cccc(Cl)c2)[n+]([O-])c1C |  | inconclusive [inhibitor, single point]
Cc1ccc(C)c(N=Nc2nc3ccccc3n2C)c1 |  | active: 3.55 µM
CC1(C(=O)Nc2ccc(Cl)c(Cl)c2)CCN1C(=O)CCC1CCCC1 (stereo not drawn) |  | active: 23.1 µM
CCOc1ccc(N(CC(=O)NCCc2ccc(F)cc2)S(=O)(=O)c2ccccc2)cc1 |  | inconclusive [inhibitor, single point]
C[C@@H]1Cn2cnc(C(=O)N[C@@H](Cc3c[nH]c4ccccc34)C(=O)OC(C)(C)C)c2C(=O)N1 |  | inconclusive [inhibitor, partial curve, poor fit]
Cc1csc(NC(=O)c2cc(=O)[nH]c3ccccc23)n1 |  | inconclusive [inhibitor, partial curve]
C=CCN(c1ccccc1)S(=O)(=O)c1cccc(C(=O)NCC(c2ccc(OC)cc2)N2CCCCC2)c1 (stereo not drawn) |  | active: 5.8 µM
CN(CC(=O)Nc1cccc(F)c1)C(=O)c1ccc(-n2cncn2)c([N+](=O)[O-])c1 | inactive: -23.8% | 
CC(/C=C1\SC(=S)N(c2ccc(C(=O)O)cc2)C1=O)=C\c1ccccc1 |  | inconclusive [inhibitor, single point]
O=C(Nc1cccnc1)c1cc(-c2ccc(Br)cc2)nc2ccccc12 |  | inconclusive [inhibitor, single point]
COC(=O)[C@]12CCCCC=C1N(Cc1cccc3ccccc13)C(=O)[C@H](CC(=O)NCCc1ccccc1OC)C2 |  | inconclusive [inhibitor, single point]
NC(=S)N/N=C1\CCSc2ccc(Cl)cc21 |  | active: 18.4 µM
Cc1c(C(=O)OC2CCCC2)[nH]c2c1C(=O)CC(c1ccc(C(C)(C)C)cc1)C2 (stereo not drawn) |  | inconclusive [inhibitor, partial curve]
CN(C)S(=O)(=O)c1ccc(N2CCCC2)c(C(=O)N2CCN(c3ccc([N+](=O)[O-])cc3)CC2)c1 |  | inconclusive [inhibitor, single point]
Cn1c(SCC(=O)Nc2ccccc2)nc2ccccc2c1=O |  | inconclusive [inhibitor, single point]
COc1ccc(/C=N/N2C(=O)CSC2=S)cc1 |  | inconclusive [inhibitor, partial curve]
Cc1noc(C)c1CC(=O)N1CCCC(C(=O)c2ccc(C(C)(C)C)cc2)C1 (stereo not drawn) |  | active: 20.6 µM
COc1cc(C)nc(Oc2ccc(OCCOc3ccc(C)cc3)nn2)n1 | inactive: -28.1% | 
CC1=CC(C)(C)N2C(=O)C(=Nc3ccc(O)cc3)c3cccc1c32 |  | active: 3.26 µM
CC(C)(C)C1CCc2c(sc(NC(=O)c3cccc(Cl)c3)c2C(N)=O)C1 (stereo not drawn) | inactive: -0.679% | 
O=C(Nc1nc2c(Cl)ccc(Cl)c2s1)C1CC1 | inactive: 21.8% | 
Cc1nc(Nc2ccccc2Br)c2nnn(Cc3ccccc3)c2n1 | inconclusive: -32% [inhibitor] | 
CCN(CCCNC(=O)c1cc2cc3cc(OC)ccc3nc2s1)c1cccc(C)c1 |  | inconclusive [inhibitor, partial curve, poor fit]

SMILES | activity change, negative = growth inhibition | Potency
O=C(CCCOc1ccccc1)NN1C(=O)NC2(CCCCC2)C1=O | inactive: -5.01% | 
COc1ccc2c(C)cc(SCC(=O)NCCN3C(=O)CSC3=O)nc2c1 | inactive: 0.432% | 
CCC(=O)Oc1c(Sc2ccc(Cl)cc2)c(C)nn1C(C)(C)C | inactive: -28.6% | 
CCC1CN(C(=O)NCc2ccccc2)c2ccccc2O1 (stereo not drawn) |  | inconclusive [inhibitor, single point]
O=C1Nc2ccccc2/C1=N\N1CCOCC1 | inactive: 0.93% | 
Cc1cc2c(cc3c(SCc4ccc(Cl)cc4)nnc(C)n32)o1 |  | inconclusive [inhibitor, single point]
CCOC(=O)Cc1ccc(Nc2nc(NCc3cccs3)nc3ccsc23)cc1 |  | active: 20.6 µM
O=S(=O)(c1ccccc1Cl)N1CCC(Cc2ccccc2)CC1 | inactive: -9.93% | 
COc1ccc2ccc(OC)c(/C=N/n3cnnc3)c2c1 |  | inconclusive [inhibitor, single point]
CC1(C)CC(=O)c2sc(NC(=O)c3ccc4ncsc4c3)nc2C1 |  | inconclusive [inhibitor, partial curve, poor fit]
c1ccc(COc2ccc(CN3CCN(c4ccccn4)CC3)cc2)cc1 |  | inconclusive [inhibitor, single point]
S=c1[nH]ccn1-c1ccc(Cl)cc1 |  | inconclusive [inhibitor, single point]
CSCCC(NS(=O)(=O)c1ccc2c(c1)oc(=O)n2C)C(=O)N1CCN(c2cc(Cl)ccc2C)CC1 (stereo not drawn) |  | active: 14.6 µM
O=C(CC(SCCO)c1ccc2c(c1)OCO2)c1cccs1 (stereo not drawn) |  | active: 11.6 µM
Oc1ccccc1N1CCN(C(=S)Nc2ccc(SC(F)F)cc2)CC1 |  | inconclusive [inhibitor, partial curve]
Cc1cc(C)n2c(SCC(=O)Nc3ccccc3C#N)nnc2n1 | inactive: -6.83% | 
Nc1nc(NCCO)nc(NC2CCCCC2)c1[N+](=O)[O-] |  | inconclusive [inhibitor, single point]
COc1ccc2oc(=O)c(C(=O)NCCc3ccc(OC)c(OC)c3)cc2c1 |  | inconclusive [inhibitor, single point]
O=C(O)/C=C(/c1ccccc1)C(F)(F)F | inactive: 10.1% | 
CCCN(CCC)Cc1cc(=O)oc2cc(C)cc(C)c12 |  | inconclusive [inhibitor, single point]
O=C(CN1CCCCCC1)Nc1ccc(Br)cc1[N+](=O)[O-] |  | inconclusive [inhibitor, partial curve]
COc1ccc(NC(=O)C2CCN(c3cc(-c4ccccc4)nc4ncnn34)CC2)cc1OC |  | active: 23.1 µM
CCN1CCN(Cc2c(O)ccc3oc(C)c(C(=O)Nc4ccc(OC)c(Cl)c4)c23)CC1 |  | inconclusive [inhibitor, single point]
CC1CN(CCc2ccccc2)c2nc3c(c(=O)[nH]c(=O)n3C)n2C1 (stereo not drawn) |  | inconclusive [inhibitor, partial curve]
O=C1CC(NNC(=O)c2cccc(F)c2)C(=O)N1 (stereo not drawn) | inactive: 1.72% | 

SMILES | activity change, negative = growth inhibition | Potency
CC[C@]12c3[nH]c4ccccc4c3CCN1C(=O)C(CC(=O)NCCc1ccccn1)C[C@@H]2C(=O)N1CCN(C(=O)c2ccco2)CC1 (stereo partly drawn) | inactive: 0.68% | 
Cc1cc(C)cc(NC(=O)CN2C(=O)COc3ccc(S(=O)(=O)Nc4ccccc4)cc32)c1 | inactive: -19.3% | 
Cc1cc(N2CCN(C(C(=O)NC3CCCC3)C(C)(C)C)CC2)c2ccccc2n1 (stereo not drawn) |  | active: 11.6 µM
CCOc1ccccc1C(=O)NCC(=O)OCC(=O)c1c(N)n(C)c(=O)n(C)c1=O | inactive: -1% | 
C=CCn1c(O)c(N=NC(=S)Nc2ccccc2F)c2ccccc21 |  | active: 2.59 µM
COc1ccc(C(=O)c2ccc(OC)cc2OC)cc1 |  | active: 5.8 µM
CCOC(=O)c1cnc2ccccc2c1Nc1ccc2c(c1)OCCO2 |  | inconclusive [inhibitor, single point]
C=CCn1c(=N)c(S(=O)(=O)c2ccc(C)c(C)c2)cc2c(=O)n3ccccc3nc21 |  | inconclusive [inhibitor, single point]
OCCNCCOCCOc1ccccc1-c1ccccc1 |  | inconclusive [inhibitor, single point]
O=C(NCCc1ccccc1F)C1CCCN1S(=O)(=O)c1ccc2ccccc2c1 (stereo not drawn) |  | inconclusive [inhibitor, single point]
O=C(Nc1cccc(-c2cccc(F)c2)c1)C1CCN(CC2CCOC2)CC1 (stereo not drawn) |  | inconclusive [inhibitor, single point]
CC(C)(C)NC(=O)C(c1ccc(C#N)cc1)n1c(=O)c(-c2ccccc2)nc2ccccc21 (stereo not drawn) |  | inconclusive [inhibitor, single point]
COc1ccc(S(=O)(=O)Nc2ccccc2C(=O)N2CCOCC2)cc1F | inactive: 10.3% | 
Cc1nn(-c2ccccc2)c(Cl)c1/C=N/Nc1nnc(C)c(=O)[nH]1 |  | inconclusive [inhibitor, single point]
Cc1ccc(NC(=O)CCc2nc3sc4c(c3c(=O)[nH]2)CCCC4)nc1 | inactive: -28.2% | 
Cc1ccc2nc(-c3ccncc3)c(Nc3ccccc3C)n2c1 |  | inconclusive [inhibitor, single point]
Cc1c(C)c(C)c(S(=O)(=O)Nc2ccc3[nH]c(=O)[nH]c3c2)c(C)c1C | inconclusive: -31.9% [inhibitor] | 
COc1cccc(CNc2nc3cc(-c4cccc(OC)c4)sc3c(=O)n2C)c1 |  | inconclusive [inhibitor, single point]
COCC(=O)N(C)C[C@H]1N[C@@](C)(C(=O)OC)[C@H]2C(=O)N(C)C(=O)[C@@H]12 | inactive: 8.54% | 
Cc1cccc(-c2nc3c4ccccc4nc(NCc4ccccc4Cl)n3n2)c1 | inactive: -15.5% | 
COc1ccc(CC(=O)NC(C)CCc2ccccc2)cc1OC (stereo not drawn) |  | inconclusive [inhibitor, single point]
Cc1ccc(C(NC(=O)Cc2cccs2)C(=O)Nc2ccc(C(C)C)cc2)cc1 (stereo not drawn) |  | inconclusive [inhibitor, single point]
CN(Cc1ccccc1)S(=O)(=O)c1ccc(F)c(C(=O)Nc2ccccc2C(F)(F)F)c1 |  | inconclusive [inhibitor, single point]
